Measured values: publication PMC12136788
The other results are listed elsewhere or left out.

B1: chr11:58768638:58768639:+_ENSMUSG00000078851_ENSMUST00000108817|mus_mus|FALSE|FALSE (ssRNA)
RNA: GGGAGUUCUACAGUCCGACGAUCUCUAAUGAGGUUGUGGGUGGCUCUGAAAAGAGCCUUUGGUGUCUGUAAAAGUCGCACUAACGACCGGUAGGGGCCUCACUUGCCCUUGGCCUUGUGGUGGCUCUCGGUCUUCUUGGGCAGCAACAGAGGAUUGAGCAUCA
B2: chr1:163117127:163117128:-_ENSG00000143248_ENST00000313961|hu_mus|hu_hu_hu_mus_False|1_88 (ssRNA)
RNA: GGGAGUUCUACAGUCCGACGAUCUGCUACAAAGGAUGUAACUCAACACUCACAGGAACUUUUGGAAGCCUGACCAGAUGACUACUUGAUUAGCUCCUUAUAAAAUUCAGAGCGCACAAAGCGGGGCAGAGAAUCCUUUUCCAUCAACAGAGGAUUGAGCAUCA
B3: chr18:35732517:35732518:+_ENSMUSG00000037236_ENSMUST00000166793|mus_hu|FALSE|FALSE (ssRNA)
RNA: GGGAGUUCUACAGUCCGACGAUCUAUAGAGCACAGAUGGGGAUAACCCUUCGGUAAGAGUCCAUGGAAGUCUUCAAUAUUGCUACUUGGAGGAGCGCCUCUCUUUUUCUCAAAGAGAGAUCUCUCUUGUAAGGGGCCAGGACCCAACAGAGGAUUGAGCAUCA
B4: chr1:180854502:180854503:+_ENSG00000143324_ENST00000367589|hu_hu|FALSE|FALSE (ssRNA)
RNA: GGGAGUUCUACAGUCCGACGAUCAGUGUACUUUUCAUGUAUGACCAAGUAAAGAUCCCUAAAAUUUUAAAACAGGUUUUCUAUGGGAUGGCAUGAAAUCCAAUGUUCAUCCUUUAAAACUGCUGGGAGAAAUGGCUGCCAAGGCAACAGAGGAUUGAGCAUCA
B5: chr1:146634147:146634148:-_ENSG00000131791_ENST00000254101|hu_mus|FALSE|FALSE (ssRNA)
RNA: GGGAGUUCUACAGUCCGACGAUCCUCCUCAGAUCGAAACACAUACAUUUCUUGACCGUAAGGCCCAGGGGGUGAGCUGGACAGGUCUCGACAUGACGUCUCCGAGCUUUCCAUAGAGUCUAACUUUAAAGCGUCAAAUACUUCCAACAGAGGAUUGAGCAUCA
B6: chr7:141445308:141445309:+_ENSG00000106028_ENST00000265304|hu_hu|hu_hu_hu_mus_False|8_28 (ssRNA)
RNA: GGGAGUUCUACAGUCCGACGAUCUAUGAUUGUUGUUGCUUGCCGCCUCACAUUGUUUUUAUCCAUGUACUCGCCAUAGUCCACUUUCCCUUCCACAAAUAUACGAGACCCCUUUUUCACAUACUGAUAUGCCACGUCUCUGAGCAACAGAGGAUUGAGCAUCA
B7: 84155842_84280924_356_3pUTR_ENSMUSG00000045658_ENSMUST00000168574|mouse|control|control (ssRNA)
RNA: GGGAGUUCUACAGUCCGACGAUCUGUGGUGGUGCACAGCUCAAUGGCUUCCGGCUCAUGGAAGAGGACUGCUGGUAUAGGUUCCUUUUUCAGUGUUAGGACAUUCAACUUAGACUUCAGCAUGGUCUGGAAGUGCUGCAGGCGCAACAGAGGAUUGAGCAUCA
B8: chr4:128759998:128759999:+_ENSMUSG00000028793_ENSMUST00000168461|mus_mus|motif|central (ssRNA)
RNA: GGGAGUUCUACAGUCCGACGAUCUGCACCAAGACUGGCUGUGUCUUUGGGGAAAAUUUCCUUUUGGACAUCAGCUUGAACUUCGGACCGGCUGUACUUUCCCUUGCCGCUGGAGAGAAUACCACCACUCAGUGUGCCCCCUGACAACAGAGGAUUGAGCAUCA
B9: chr11:29608675:29608676:+_ENSMUSG00000020458_ENSMUST00000102843|mus_hu|FALSE|FALSE (ssRNA)
RNA: GGGAGUUCUACAGUCCGACGAUCUUCUGUAUCGGAAGGAAGUUUUUUCUCAGCUUCUUUCACAAGAACUUUGGGUUUAACUAUGCUCUCUAUCUCUGCUUGAGUGGCCAAAGCAGAAACAUCUGGAGGCAAUAAGAGCACCUUCAACAGAGGAUUGAGCAUCA
B10: chr17:29226239:29226240:-_ENSG00000172171_ENST00000306049|hu_hu|motif|central (ssRNA)
RNA: GGGAGUUCUACAGUCCGACGAUCUAAUUAUACUUUAGCACGUUAACCUCAGAAUUCUAAGGCUGAGAGUCAAACACUGCGGAUUCAUAGAAGGCAAUAGCUUGUAAUAAUGAAUCAUAAAGCUCUUCUACUCUUUGUAGUUCACAACAGAGGAUUGAGCAUCA
B11: chr10:62545423:62545424:+_ENSG00000170312_ENST00000395284|hu_hu|FALSE|FALSE (ssRNA)
RNA: GGGAGUUCUACAGUCCGACGAUCAAACUCAAAGAUGAGAUAUAACCUGGAAUCCUGCAUAAGCACAUCCUGAAGACUGACUAUAUUUGGAUGACGAAGUUCCUUUAAUAGAGAAAUUUCCCGAAUUGCAGUACUAGGAACCCCCAACAGAGGAUUGAGCAUCA
B12: chr1:214814342:214814343:+_ENSG00000117724_ENST00000366955|hu_hu|motif|central (ssRNA)
RNA: GGGAGUUCUACAGUCCGACGAUCGGCACUUAAGGUUUCAGCAACAACAUUCUGGUGAGCAGAAGUGUCUUCCUGUAACUUACGGAUGCGCUGACUUGUUUCAGCCACAAAACUUUGAUGCAUCUGUUCUGCUUUCAUGAGAUUCAACAGAGGAUUGAGCAUCA
B13: chr3:150289932:150289933:+_ENSG00000144895_ENST00000460851|hu_hu|motif|central (ssRNA)
RNA: GGGAGUUCUACAGUCCGACGAUCUUUGUAGUUUUUCACAUCCCACACUUCCAUUUGUCCCCUCAGAUUUCCAAAUCCAGCGGAUACGGAUAUAUGUCCAUGAGGGCUAUAGUAGGCUGCAUUACGAGGACCAGUUCCAAAGUCCAACAGAGGAUUGAGCAUCA
B14: chr7:99968543:99968544:+_ENSMUSG00000030643_ENSMUST00000032879|mus_hu|FALSE|FALSE (ssRNA)
RNA: GGGAGUUCUACAGUCCGACGAUCAAAGACCCUGAGUGAAUCUUCGGACGAGGCACGUCUUCCCCACACCAGCGUUGCCAAUUAAAACAAUUUUGAACAGGAAAUCAUAAUCUUCCAUACUCAUUUACACAGCUUCAAUUUUCUCAACAGAGGAUUGAGCAUCA
B15: chr11:93807532:93807533:+_ENSMUSG00000059474_ENSMUST00000107854|mus_hu|FALSE|FALSE (ssRNA)
RNA: GGGAGUUCUACAGUCCGACGAUCCAGUACAUUUUGAACCGUAAAAGAGAAUGGGGCGAUUGAGUUGUACAACUGGAGUUAUGGCUAAGACAUAAAUCUCCUCUGCAUUAAUUAUUUUUCGGUUCGUCGGCAGUAGGAGUUAGUCAACAGAGGAUUGAGCAUCA
B16: chr4:83122263:83122264:-_ENSMUSG00000028484_ENSMUST00000107214|mus_mus|FALSE|FALSE (ssRNA)
RNA: GGGAGUUCUACAGUCCGACGAUCAUUGGAUUGUUUAGUUGAUGCCUGUUGACUUGAAAAUUUCACUUUCGGAUUGUUAUCUAUCUCCCACAAUCCUUCAUUAAAACCUUUCCGUUUAUUUGGUUUGCCAUACUUUUCCUUAUUCAACAGAGGAUUGAGCAUCA
B17: chr6:33248723:33248724:-_ENSG00000227057_ENST00000374617|hu_mus|FALSE|FALSE (ssRNA)
RNA: GGGAGUUCUACAGUCCGACGAUCUGCUCCCUGGGGCAAGGUCCGGGAACUCAGGGGCUGGAAUGUCCCUCGCAAGUCAAAGAUCUUCAGCUGGUGGUCCAGACCAGAGGUGGCCAUGUACGUGCCUGUAGAAUCUACUGCCACCAACAGAGGAUUGAGCAUCA
B18: chr7:135612270:135612271:-_ENSG00000105887_ENST00000393085|hu_mus|hu_hu_hu_mus_False|18_48 (ssRNA)
RNA: GGGAGUUCUACAGUCCGACGAUCGUUUUUUUCUGAGAUGUUAAAUAGUACUUCAGUGGAAAACAAAACUUAACCUUUUAUUAAUGCAUGUAGUACCAAAAGCAGACAUUUUAGCUUGCUUCCUUUAAAAAUAUUAACAUUAAGCAACAGAGGAUUGAGCAUCA
B19: chr1:46159212:46159213:+_ENSG00000159596_ENST00000372025|hu_mus|hu_hu_hu_mus_True|48_88 (ssRNA)
RNA: GGGAGUUCUACAGUCCGACGAUCUCUGAUCCCUCCCAAGAAAGCUAGGAAACUGGCUCCAUAAGCCAUCUGAGUGAAAGCUAGGACGGGAAUAUAAGACUUUGUUAUUACCAUGAGAAGUGGGGGAGCAGUAAAGGGGAUUAACAACAGAGGAUUGAGCAUCA
B20: chr11:47650564:47650565:-_ENSG00000109919_ENST00000530428|hu_hu|motif|central (ssRNA)
RNA: GGGAGUUCUACAGUCCGACGAUCAUAGGUAUUGACGAGGUAGGCCAGUGAGUUACACAGCCACAAAGAAAGGAUGUCACCGGGAAGGCGAGGAACAAGACCCGCGAAAAAUCCUAGAAUGCCCUCUUCCCGAUAGAUGGUUAUCAACAGAGGAUUGAGCAUCA
B21: chr3:55303971:55303972:+_ENSMUSG00000027797_ENSMUST00000054237|mus_mus|FALSE|FALSE (ssRNA)
RNA: GGGAGUUCUACAGUCCGACGAUCGCCGUCGACAAUUGUGGCCAGGCCAAAGUCACCCAACUUGAGUGACUUACUGCCAUCCUGGUGCUCAUACACCAGCAGAUUCUCUGGCUUGAUGUCACGGUGGACGAUGUUCAGGCUGUGCAACAGAGGAUUGAGCAUCA
B22: chr8:95500983:95500984:-_ENSG00000164944_ENST00000437199|hu_hu|hu_hu_hu_mus_True|8_38 (ssRNA)
RNA: GGGAGUUCUACAGUCCGACGAUCAGAACACAUCUAUCGAGUAAAGGACCGUACAUGACGGCCUCUACCACUGCCUCCACUAACAAACUUUCCUCUCUGAGCCUCCAUGCCGCUAUUUGUACUAGCCCCAGGAAGGUCCAGGCCCAACAGAGGAUUGAGCAUCA

The binders below were run against T1, UNK ZnF1-3 (human, UniProt Q9C0B0 31-174) (assay: nsRBNS (natural sequence RNA bind-n-seq); RBNS binding buffer (assumed for nsRBNS): 25 mM Tris pH 7.5, 150 mM KCl, 3 mM MgCl2, 0.01% Triton X-100, 500 ug/ml BSA, 20 U/ml SUPERase-In, 4 C; UNK is unkempt and MSI1 is Musashi-1; names of the RNAs are library labels; protein concentration not given here; high values mean tight binding).
T1 sequence: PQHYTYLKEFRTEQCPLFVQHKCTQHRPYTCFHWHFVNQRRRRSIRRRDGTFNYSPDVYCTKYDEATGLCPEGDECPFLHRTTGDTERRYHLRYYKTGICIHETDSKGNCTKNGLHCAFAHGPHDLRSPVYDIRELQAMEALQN

Compared with B1, B2 is higher in binding signal: 0.753 enrichment R for the first, 1.32 enrichment R for the second.

Compared with B3, B4 is higher in binding signal: 1.02 enrichment R for the first, 1.28 enrichment R for the second.

Compared with B5, B6 is higher in binding signal: 0.491 enrichment R for the first, 0.611 enrichment R for the second.

Compared with B7, B8 is higher in binding signal: 1.02 enrichment R for the first, 1.23 enrichment R for the second.

First: B9
Second: B10
The binding signal of the first is lower: 0.465 enrichment R for the first, 1.05 enrichment R for the second.

Going from B11 to B12, the binding signal rises from 0.85 enrichment R to 1.06 enrichment R.

First: B13
Second: B14
The binding signal of the first is lower: 0.948 enrichment R for the first, 1.18 enrichment R for the second.

Going from B15 to B16, the binding signal falls from 0.932 enrichment R to 0.308 enrichment R.

Compared with B17, B18 is lower in binding signal: 1.15 enrichment R for the first, 0.867 enrichment R for the second.

First: B19
Second: B20
The binding signal of the first is higher: 1.3 enrichment R for the first, 0.995 enrichment R for the second.

Going from B21 to B22, the binding signal rises from 0.581 enrichment R to 0.887 enrichment R.
